Reference: paper PMC5892938
Some of the results follow. At the low end of the ranking the order means little.

What follows are sequences tested against GST-SBP-SLBP (stem-loop binding protein) (UniProt Q14493) (assay: targeted RNA Bind-n-Seq). Settings: RBNS binding buffer: 25 mM Tris pH 7.5, 150 mM KCl, 3 mM MgCl2, 0.1% Tween, 0.5 mg/mL BSA, 1 mM DTT; 27 nM protein, 750 pM RNA pool; temperature not stated; high values mean tight binding.
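Note: DESeq read counts versus GST-SBP nonspecific binding control pulldown.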

| Sequence | binding signal (log2 fold change) |
| --- | --- |
| GGUCACGUCUCAAUCAACUCACUAGAGGGGGGGAAAACCCCUUUGCCCUCACCAUCAACAGCUCGCAGUCAAG | 0.196 |
| GGUCACGUCUCAAUCAACUCUUUUUCCAGGGAAACCCCUGGCUUACUCAACAGCUCGCAGUCAAG | 0.114 |
| GGUCACGUCUCAAUCAACUCAAUUCCAGGAGUUUCCUCCUGUAUUCUCAACAGCUCGCAGUCAAG | 0.135 |
| GGUCACGUCUCAAUCAACUCCCUAGAGGGGGGGAAAACCCCUUUGCCCUCAUAAUCAACAGCUCGCAGUCAAG | -0.291 |
| GGUCACGUCUCAAUCAACUCAAUUUCCAGGGAAACCCCUGGUUAACUCAACAGCUCGCAGUCAAG | -0.33 |
| GGUCACGUCUCAAUCAACUCCUUAGAGGGGGGGAAAACCCCUUUGCCCUCGUUUUCAACAGCUCGCAGUCAAG | 0.342 |
| GGUCACGUCUCAAUCAACUCAUUCUCAGGAGUUUGCUCCUGUAUUUUCAACAGCUCGCAGUCAAG | 0.0813 |
| GGUCACGUCUCAAUCAACUCAUCCCCAGGAGUUUUCUCCUGUUUACUCAACAGCUCGCAGUCAAG | 0.0867 |
| GGUCACGUCUCAAUCAACUCAAUUCCAGGAGUUUACUCCUGCUAACUCAACAGCUCGCAGUCAAG | 0.106 |
| GGUCACGUCUCAAUCAACUCUACUCCCAGGGAAAACCCUGGCAAAUUCAACAGCUCGCAGUCAAG | 0.0986 |
| GGUCACGUCUCAAUCAACUCUUCCCCAGGAGUUUCCUCCUGUAAUCUCAACAGCUCGCAGUCAAG | 0.0344 |
| GGUCACGUCUCAAUCAACUCUAGUCCCAGGGAAAUCCCUGGCAAAUUCAACAGCUCGCAGUCAAG | -0.0255 |
| GGUCACGUCUCAAUCAACUCAUCCUCCAGGGAAAGCCCUGGUAUUUUCAACAGCUCGCAGUCAAG | 0.225 |
| GGUCACGUCUCAAUCAACUCCCUGGAGGGGGGGAAAACCCCUUUACCCUCAUUUUCAACAGCUCGCAGUCAAG | -0.503 |
| GGUCACGUCUCAAUCAACUCUUCUCCAGGAGUUUUCUCCUGUAUAUUCAACAGCUCGCAGUCAAG | -0.142 |
| GGUCACGUCUCAAUCAACUCAUCUUCCAGGGAAACCCCUGGCUUUUUCAACAGCUCGCAGUCAAG | -0.104 |
| GGUCACGUCUCAAUCAACUCAACUUCCAGGGAAAACCCUGGCUUAUUCAACAGCUCGCAGUCAAG | -0.0263 |
| GGUCACGUCUCAAUCAACUCAAUUCCCAGGGAAAACCCUGGUUAUCUCAACAGCUCGCAGUCAAG | -0.123 |
| GGUCACGUCUCAAUCAACUCUAUUUCAGGAGUUUACUCCUGCAUUCUCAACAGCUCGCAGUCAAG | 0.111 |

| Sequence | binding signal (log2 fold change) |
| --- | --- |
| GGUCACGUCUCAAUCAACUCUUUUCCCAGGGAAAACCCUGGUUUACUCAACAGCUCGCAGUCAAG | 0.0481 |
| GGUCACGUCUCAAUCAACUCUUUAGAGGGGGGGAAAACCCCUUUACCCUCAUAUUCAACAGCUCGCAGUCAAG | -0.00288 |
| GGUCACGUCUCAAUCAACUCAUCGUCCAGGGAAAACCCUGGUAUUUUCAACAGCUCGCAGUCAAG | -0.0125 |
| GGUCACGUCUCAAUCAACUCAUACGAGGGGGGGAAAACCCCUUUACCCUCUCAAUCAACAGCUCGCAGUCAAG | -0.101 |
| GGUCACGUCUCAAUCAACUCCAUAGAGGGGGGGAAAACCCCUUUGCCCUCACUAUCAACAGCUCGCAGUCAAG | -0.101 |
| GGUCACGUCUCAAUCAACUCUUCCUCAGGAGUUUACUCCUGUAUUCUCAACAGCUCGCAGUCAAG | 0.131 |
| GGUCACGUCUCAAUCAACUCUUAGGAGGGGGGGAAAACCCCUUUACCCUCAACCUCAACAGCUCGCAGUCAAG | -0.326 |
| GGUCACGUCUCAAUCAACUCAACUCCCAGGGAAAGCCCUGGCUUACUCAACAGCUCGCAGUCAAG | -0.168 |
| GGUCACGUCUCAAUCAACUCUAUUUCCAGGGAAAGCCCUGGUUAACUCAACAGCUCGCAGUCAAG | 0.269 |
| GGUCACGUCUCAAUCAACUCUUCCUCCAGGGAAACCCCUGGUUAACUCAACAGCUCGCAGUCAAG | 0.443 |
| GGUCACGUCUCAAUCAACUCUUCCUCCAGGGAAACCCCUGGCAAACUCAACAGCUCGCAGUCAAG | 0.0958 |
| GGUCACGUCUCAAUCAACUCUUCUUCCAGGGAAAGCCCUGGUUAUGUCAACAGCUCGCAGUCAAG | -0.186 |
| GGUCACGUCUCAAUCAACUCAUCCCCAGGAGUUUUCUCCUGUAUUUUCAACAGCUCGCAGUCAAG | -0.0579 |
| GGUCACGUCUCAAUCAACUCAUCCCCAGGAGUUUCCUCCUGCAAUUUCAACAGCUCGCAGUCAAG | -0.0196 |
| GGUCACGUCUCAAUCAACUCUAUUUCCAGGGAAACCCCUGGUUAAUUCAACAGCUCGCAGUCAAG | 0.0432 |
| GGUCACGUCUCAAUCAACUCUUUCCCCAGGGAAACCCCUGGUAAAUUCAACAGCUCGCAGUCAAG | 0.0137 |
| GGUCACGUCUCAAUCAACUCAAUCCCAGGAGUUUUCUCCUGUUUAUUCAACAGCUCGCAGUCAAG | -0.116 |
| GGUCACGUCUCAAUCAACUCAUUUUCCAGGGAAAACCCUGGUUUUUUCAACAGCUCGCAGUCAAG | -0.131 |
